Results published in PMC3540817, “Transfer of a Redox-Signal through the Cytosol by Redox-Dependent Microcompartmentation of Glycolytic Enzymes at Mitochondria and Actin Cytoskeleton” (Frontiers in Plant Science, 2012).
These are yes or no findings as the source states them, for the method shown. For part of these data: In cells and extracts the contact can be indirect. Some entries that bind do so weakly or less than the wild type. For part of these data: Sequences can lack the tags named with a protein.

Protein sequences, listed by entry. Tags and fused reporters are not part of them. Residues count along the entry.
UniProt Q9FX54: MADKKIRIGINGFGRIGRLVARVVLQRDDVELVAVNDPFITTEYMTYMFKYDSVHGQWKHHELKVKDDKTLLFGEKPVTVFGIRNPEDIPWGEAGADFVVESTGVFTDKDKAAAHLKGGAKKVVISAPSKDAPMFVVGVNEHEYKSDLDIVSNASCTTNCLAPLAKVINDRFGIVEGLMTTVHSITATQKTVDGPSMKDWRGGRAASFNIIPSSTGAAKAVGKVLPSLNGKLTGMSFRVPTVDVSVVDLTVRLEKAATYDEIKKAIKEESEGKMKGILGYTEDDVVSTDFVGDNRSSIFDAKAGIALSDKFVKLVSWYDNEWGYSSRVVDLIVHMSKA
UniProt P02769, residues 25-607: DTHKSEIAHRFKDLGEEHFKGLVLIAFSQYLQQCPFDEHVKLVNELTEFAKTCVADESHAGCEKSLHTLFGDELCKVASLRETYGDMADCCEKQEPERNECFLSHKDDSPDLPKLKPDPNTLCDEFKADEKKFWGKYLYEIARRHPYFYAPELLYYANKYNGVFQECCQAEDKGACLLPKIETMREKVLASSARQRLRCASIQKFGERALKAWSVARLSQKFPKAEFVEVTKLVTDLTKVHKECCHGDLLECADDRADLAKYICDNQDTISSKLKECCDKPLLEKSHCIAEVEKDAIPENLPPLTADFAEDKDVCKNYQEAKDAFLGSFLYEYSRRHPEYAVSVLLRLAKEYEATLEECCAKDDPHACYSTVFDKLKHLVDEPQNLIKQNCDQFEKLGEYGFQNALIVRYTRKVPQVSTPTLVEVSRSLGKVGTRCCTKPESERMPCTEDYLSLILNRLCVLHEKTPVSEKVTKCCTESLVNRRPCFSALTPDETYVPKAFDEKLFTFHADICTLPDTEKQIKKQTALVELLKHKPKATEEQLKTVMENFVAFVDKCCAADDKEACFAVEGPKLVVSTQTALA
UniProt P25858: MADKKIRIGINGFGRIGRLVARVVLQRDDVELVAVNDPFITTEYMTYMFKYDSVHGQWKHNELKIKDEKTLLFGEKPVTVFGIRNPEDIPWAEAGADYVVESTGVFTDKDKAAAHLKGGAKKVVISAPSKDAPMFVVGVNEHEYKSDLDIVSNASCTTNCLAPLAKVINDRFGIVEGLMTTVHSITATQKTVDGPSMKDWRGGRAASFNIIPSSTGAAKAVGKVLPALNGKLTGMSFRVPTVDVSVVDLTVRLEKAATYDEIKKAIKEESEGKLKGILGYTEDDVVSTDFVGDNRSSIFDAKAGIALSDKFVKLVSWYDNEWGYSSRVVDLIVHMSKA

Columns and labels:
[1] = target: cytosolic glyceraldehyde-3-phosphate dehydrogenase GapC2 (At1g13440), yeast two-hybrid fusion (A. thaliana) (UniProt Q9FX54); assay: two-hybrid; screen of a cDNA library from A. thaliana suspension cell culture with GapC1 or GapC2 as bait (Matchmaker kit); selection on SD/QDO/X-α-Gal
[2] = target: T1, VDAC3 fused to the C-terminal half of YFP (A. thaliana) (UniProt Q9SMX3); assay: split reporter; split YFP fusions (pUC-SPYNE, pUC-SPYCE) cotransformed in Arabidopsis mesophyll protoplasts; cLSM; mitochondria stained with MitoTracker Orange
T1 sequence: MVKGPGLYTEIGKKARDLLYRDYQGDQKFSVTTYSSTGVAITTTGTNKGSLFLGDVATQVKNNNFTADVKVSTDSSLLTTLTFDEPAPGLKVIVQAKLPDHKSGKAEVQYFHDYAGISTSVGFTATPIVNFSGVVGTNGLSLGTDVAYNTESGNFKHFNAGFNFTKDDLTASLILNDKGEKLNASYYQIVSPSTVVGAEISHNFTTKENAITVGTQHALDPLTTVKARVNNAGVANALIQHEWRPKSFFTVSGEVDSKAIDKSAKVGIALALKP

[3] = target: cytosolic fructose 1,6-bisphosphate aldolase FBA6 (At2g36460), yeast two-hybrid fusion (A. thaliana) (UniProt Q9SJQ9); assay: two-hybrid; one-on-one assay: yeast AH109 cotransformed with bait and prey vectors; drop test on SD/TDO and SD/QDO/X-α-Gal
[4] = target: bovine serum albumin (bovine) (UniProt P02769); assay: far-Western, overlay or dot blot; 2 μg of each protein spotted on nitrocellulose, overlaid with 100 μg/ml aldolase with 0.1 mM GSNO, 5 mM GSSG, 1 mM diamide + 1 mM GSH or 0.5 mM H2O2 + 0.5 mM GSH, 1 h room temperature; glutaraldehyde cross-linking; anti-aldolase antibody; both purified
[5] = target: T2, recombinant GAPDH GapC1 (At3g04120) (A. thaliana, UniProt P25858 1-338); assay: far-Western, overlay or dot blot; GapC spotted on nitrocellulose, overlaid with VDAC3 in liposomes, with 10 mM DTT; anti-VDAC1 serum, ECL; both purified
T2 construct: cytosolic NAD-dependent glyceraldehyde-3-phosphate dehydrogenase GapC1, A. thaliana, At3g04120; Redox reagents (diamide + GSH, GSSG, GSNO, H2O2 + GSH, DTT) were added to the mixtures; the redox state is told by the assay; source: recombinant, purified

[6] = target: bovine serum albumin (bovine) (UniProt P02769); assay: far-Western, overlay or dot blot; GapC and BSA spotted on nitrocellulose, overlaid with VDAC3 in liposomes, without DTT (oxidized GapC); anti-VDAC1 serum, ECL; both purified

In the case of “cytosolic glyceraldehyde-3-phosphate dehydrogenase GapC1 (At3g04120), yeast two-hybrid fusion (from UniProt P25858 1-338) (enzyme)”, the binding [1] is reported as “binds weakly”.

For “GapC1 fused to a half of YFP (BiFC) (from UniProt P25858 1-338) (enzyme)”, the binding [2] was “binds”.

B1: cytosolic fructose 1,6-bisphosphate aldolase FBA6 (At2g36460), yeast two-hybrid fusion (enzyme, UniProt Q9SJQ9 1-358)
chain: MSSFTSKFADELIANAAYIGTPGKGILAADESTGTIGKRLASINVENVESNRRALRELLFTTPGALPCLSGVILFEETLYQKSSDGTPFVDMLKSAGVLPGIKVDKGTVELAGTNGETTTQGLDGLGDRCKKYYEAGARFAKWRAVLKIGVNEPSQLAIHENAYGLARYAVICQENGLVPIVEPEILVDGSHDIQKCAAVTERVLAACYKALSDHHVLLEGTLLKPNMVTPGSESAKVAPEVIAEHTVRALQRTVPAAVPAIVFLSGGQSEEEATRNLNAMNQLKTKKPWSLSFSFGRALQQSTLKTWGGKEENVKKAQEAFLVRCKANSEATLGAYKGDAKLGEGAAESLHVKDYKY
In the case of B1, the binding [3] is reported as “binds weakly”.

B2: recombinant cytosolic fructose 1,6-bisphosphate aldolase (FBA6, At2g36460) (enzyme, A. thaliana, UniProt Q9SJQ9 1-358, looked up)
chain: MSSFTSKFADELIANAAYIGTPGKGILAADESTGTIGKRLASINVENVESNRRALRELLFTTPGALPCLSGVILFEETLYQKSSDGTPFVDMLKSAGVLPGIKVDKGTVELAGTNGETTTQGLDGLGDRCKKYYEAGARFAKWRAVLKIGVNEPSQLAIHENAYGLARYAVICQENGLVPIVEPEILVDGSHDIQKCAAVTERVLAACYKALSDHHVLLEGTLLKPNMVTPGSESAKVAPEVIAEHTVRALQRTVPAAVPAIVFLSGGQSEEEATRNLNAMNQLKTKKPWSLSFSFGRALQQSTLKTWGGKEENVKKAQEAFLVRCKANSEATLGAYKGDAKLGEGAAESLHVKDYKY
notes: cytosolic fructose 1,6-bisphosphate aldolase FBA6, A. thaliana, At2g36460; Redox reagents were added to the mixtures; no modified residues are named; the redox state is told by the assay; source: recombinant, purified
B2 was tested, and the binding [4] was “no binding (tested: 100 μg/ml)”.

B3: VDAC3 (At5g15090) reconstituted into liposomes (natural protein, A. thaliana, UniProt Q9SMX3 1-274, looked up)
chain: MVKGPGLYTEIGKKARDLLYRDYQGDQKFSVTTYSSTGVAITTTGTNKGSLFLGDVATQVKNNNFTADVKVSTDSSLLTTLTFDEPAPGLKVIVQAKLPDHKSGKAEVQYFHDYAGISTSVGFTATPIVNFSGVVGTNGLSLGTDVAYNTESGNFKHFNAGFNFTKDDLTASLILNDKGEKLNASYYQIVSPSTVVGAEISHNFTTKENAITVGTQHALDPLTTVKARVNNAGVANALIQHEWRPKSFFTVSGEVDSKAIDKSAKVGIALALKP
notes: voltage-dependent anion channel VDAC3, A. thaliana, At5g15090; also called VDAC3 in liposomes; porin; source: cell-free system (RTS 100 Wheat Germ CECF), separated from the reaction mix via reconstitution into liposomes
B3 was tested, and the binding [5] was “no binding (condition: with 10 mM DTT)” and the binding [6] was “no binding”.
